# From PubChem BioAssay AID1508623 (National Center for Advancing Translational Sciences (NCATS), 2021)
# Among all 48,000 compounds or so, about 450 (0.94%) were called active. Roughly 19% stayed inconclusive and do not appear here. Calls follow the shape of the dose curve; as a rule, active = well fitted inhibition curve with a large enough effect; inconclusive = small, poorly fitted or top-dose-only effect; inactive = no such curve, though single readings can be large or run the other way. Some of the results follow.
# Assay: Primary qHTS for Identification of Small Molecule Inhibitors of Huntingtin Promoter Activity; also: nearly all actives have a fitted effect of over 50% in size
# Details: HEK293 HTT promoter firefly luciferase reporter (activity 0% = vehicle and -100% = no light), 24 h; series mostly up to 57.5 µM; activity change, negative = inhibition: at the top concentration
# Procedure, shortened: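 Firefly luciferase readout (Dual-Glo, 10 min RT) after 24 h, 37 °C compound exposure (final up to 57.5 uM) of HEK293 reporter cells cultured 24 h beforehand; PTC124 at 50 uM final as control inhibitor; activity scaled vehicle 0%, zero RLU -100%.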
# Potency is read from the fitted curve at half-maximal effect.
SMILES,"activity change, negative = inhibition",Potency
CCOc1ccc(-n2c(SCC(=O)Nc3cccc(Cl)c3)nc3c(oc4ccccc43)c2=O)cc1,inactive: -11.9%,–
CCOc1ccc(-c2cnc(NCc3ccc(C(F)(F)F)cc3)n2C)cc1,inactive: -23.6%,–
CN1CCN(c2ncc3c(n2)CCN(Cc2cc(Br)cs2)C3)CC1,inactive: -19.3%,–
O=C(OCC#CCSc1nnc(-c2cccc3ccccc23)o1)c1cc2ccccc2s1,inactive: 23.6%,–
Cc1cccc(N2CCN(C(=O)c3cc4c(=O)oc5ccccc5c4s3)CC2C)c1 (stereo unspecified),inactive: -14.2%,–
COc1ccc(CNS(=O)(=O)c2cc3c(cc2C)n(C)c(=O)c(=O)n3C)cc1,inactive: -2.92%,–
CC(C)CN(CC(C)C)C(=O)C1CCCN(S(=O)(=O)c2ccc3c(c2)oc(=O)n3C)C1 (stereo unspecified),inactive: -7.96%,–
COc1cccc(NC(=O)c2nn(-c3ccc(C)cc3)c(=O)n(C)c2=O)c1,inactive: 5.12%,–
Cc1cc(C)c2nc(N3CCCC(C(=O)NCc4cccc(Cl)c4)C3)sc2c1 (stereo unspecified),inactive: -0.294%,–
COc1ccc(CCC(C)=O)cc1,inactive: -1.97%,–
Cc1ccc(NS(=O)(=O)c2ccc3c(c2)NC(=O)C(C)C(=O)N3)cc1F (stereo unspecified),inactive: -28.6%,–
Cc1ccc(NC(=O)CSc2cc(=O)n(C)c3ccc(Cl)cc23)c(Br)c1,inactive: -11.1%,–
CC(NC(=O)c1ccc2c(c1)N(Cc1cccc(F)c1)C(=O)c1ccccc1S2)c1ccccc1 (stereo unspecified),inactive: 0%,–
CCCCN(C)CCNC(=O)c1c(C)oc2ncnc(N3CCOCC3)c12,inactive: 2.63%,–
Cc1cccc(NC(=O)Cn2c(=O)n(CCC(C)C)c(=O)c3cccnc32)c1,inactive: -6.17%,–
Cc1ccc(-n2nc(C(=O)N3CCN(c4cccc(C(F)(F)F)c4)CC3)c(=O)n(C)c2=O)cc1,–,active: 31.6 µM
Cc1ccc(CNc2ccc(-c3nc(C(C)C)no3)cc2[N+](=O)[O-])cc1,inactive: -10.4%,–
Cc1ccc(-n2c(=O)c3c(c4cc(C)ccc4n3C)n(CC(=O)Nc3c(C)cccc3C)c2=O)cc1,inactive: -18%,–
O=C(CCSCCc1ccccn1)Nc1cc(F)ccc1F,inactive: -14.5%,–
CC1=C(C(=O)Nc2ccccc2)C(c2cccnc2)n2nc(SCc3ccccc3F)nc2N1 (stereo unspecified),inactive: 4.34%,–
O=c1c2sc3ccccc3c2n(Cc2ccccc2F)c(=O)n1Cc1ccccc1,inactive: -8.45%,–
CCC(CC)C(=O)Nc1cc(-c2cccc(C)c2)nn1-c1ccccc1,inactive: -32.3%,–
COc1ccc(Cl)cc1NC(=O)c1cc(C)nc2c1c(C)nn2-c1ccccc1,inactive: 0.31%,–
Cc1ccc(Cn2c(=O)n(Cc3ccco3)c(=O)c3sc4ccccc4c32)cc1,inactive: -13.4%,–

SMILES,"activity change, negative = inhibition",Potency
O=c1c2cnn(-c3ccc(Cl)cc3)c2ncn1Cc1ccc(Cl)cc1Cl,inactive: -1.86%,–
Cc1nc2c(C(=O)NCc3ccccc3)cnn2c(C)c1Cc1ccc(F)cc1,inactive: -3.06%,–
Cc1cccc(C(=O)Nc2cc3c(cc2N2CCCCC2)n(C)c(=O)c(=O)n3C)c1,inactive: -0.141%,–
CC(=O)N1CCC2(CC1)OC(=O)C(C)=C2C(=O)Nc1cccc(Cl)c1C,inactive: -6.15%,–
CCCCC(=O)Nc1cc(C)c(O)c(-c2nc3ncccc3o2)c1,inactive: -5.66%,–
O=C(CC1N=C2c3ccccc3N=C(SCc3ccccc3F)N2C1=O)NCCc1ccccc1 (stereo unspecified),inactive: -26.7%,–
CCOc1ccc(C(=O)Nc2cc(NC(=O)c3ccco3)ccc2OC)cc1Br,inactive: -13.9%,–
Cc1ccc(CCNC(=O)CCN2N=C(c3ccc(C)cc3)CCC2=O)cc1,inactive: -21.2%,–
COc1ccc(CCC(=O)NCc2ccc3c(c2)CCN3C(=O)c2ccc(F)cc2)cc1,inactive: -6.86%,–
Cc1ccc(Cl)cc1Nc1nc2ccccc2c2nncn12,inactive: -9.51%,–
Cc1cccc(C)c1NC(=O)c1ccc2c(c1)N(Cc1cccc(Cl)c1)C(=O)c1ccccc1S2=O (stereo unspecified),inactive: -19.1%,–
CC(C)CC(=O)Nc1nnc(S(=O)(=O)N2CCCCCC2)s1,inactive: 0.379%,–
CCOc1cc(CC(=O)N[C@@H](CC(C)C)c2ccccc2N2CCCCC2)ccc1C(=O)O,inactive: -3.54%,–
Cc1ccc(C(=O)N(Cc2sccc2C)C2CCS(=O)(=O)C2)cc1 (stereo unspecified),inactive: -15.3%,–
COc1ccc(OC)c(-n2nnc3c(sc4nc(C)c(Br)c(C)c43)c2=O)c1,inactive: -16%,–
Cc1nc(C)c(-c2ccc(SCC(=O)Nc3ccc(Cl)c(Cl)c3)nn2)s1,–,active: 17.8 µM
O=C(NCC(c1cccs1)S(=O)(=O)c1cccs1)c1ccccc1 (stereo unspecified),inactive: -23.9%,–
CC(NC(=O)Cn1ncc2c3ccccc3n(Cc3ccc(F)cc3)c2c1=O)c1ccccc1 (stereo unspecified),inactive: -10.2%,–
Cc1cc(Br)ccc1NC(=O)CCS(=O)(=O)c1cccc2nonc12,inactive: -14.4%,–
CC(=O)c1sc2c(c1C)c(=O)n(-c1ccc(Cl)cc1)c(=O)n2Cc1ccc(Cl)cc1,inactive: -28.4%,–
Cc1cc(C)c(Cn2c(C)c(CNCCCc3ccccc3)c(C(=O)O)c2C)c(C)c1,inactive: -20.2%,–
CCOC(=O)c1c(NC(=O)c2noc3c2CC(C(C)(C)C)CC3)sc2c1CCCC2 (stereo unspecified),inactive: -0.842%,–
Cc1ccc(C)c(N2CCN(C(=O)CN3C(=O)COc4ccc(S(=O)(=O)N5CCCCCC5)cc43)CC2)c1,inactive: -13%,–
COc1ccc(-c2cc(C(=O)Nc3c(C(=O)c4ccc(Cl)cc4)oc4ccccc34)no2)cc1,inactive: -4.85%,–

SMILES,"activity change, negative = inhibition",Potency
CCOC(=O)c1cc2c(=O)n3ccccc3nc2n(CC2CCCO2)c1=NC(=O)c1cccc(C(F)(F)F)c1 (stereo unspecified),inactive: -20.3%,–
CC(=O)N1CCC(N(Cc2ccco2)C(=O)Nc2cccc(C)c2)CC1,inactive: -1.88%,–
CCOC(=O)N1CCN(S(=O)(=O)N2CCCC(C(=O)NCc3cccc(OC)c3)C2)CC1 (stereo unspecified),inactive: -27.2%,–
CC1=C(C(=O)Nc2cc3cn[nH]c3cc2F)C(c2ccc(C(F)(F)F)cc2)CC(=O)N1 (stereo unspecified),inactive: -3.59%,–
CCC1CN(C(=O)N2CCC(C(=O)NCc3ccc(C)o3)CC2)c2cc(C)ccc2O1 (stereo unspecified),inactive: -14.5%,–
Cc1nc2c(C(=O)NCc3ccccc3Cl)cnn2c(C)c1Cc1c(F)cccc1Cl,inactive: -13.7%,–
CC(=O)N1CCCc2cc(S(=O)(=O)N3CCC(C(=O)NCCC(C)C)CC3)ccc21,inactive: -13.9%,–
O=C(NC1CC(=O)N(c2ccc(F)cc2)C1)c1cc2ccccc2o1 (stereo unspecified),inactive: 9.36%,–
CN1CCN(C(c2ccccc2)c2sc3nc(-c4ccco4)nn3c2O)CC1 (stereo unspecified),inactive: -0.464%,–
COc1ccccc1NC(=O)n1ncc2c(C)cccc21,inactive: 10.3%,–
O=NN(CCCl)C(=O)NCCCl,inactive,–
CCOC(=O)c1ncn2c1CN(C)C(=O)c1cc(F)ccc1-2,inactive,–
CC1CCc2nc(NC(=O)COc3ccc(C(C)(C)C)cc3)sc2C1 (stereo unspecified),inactive: -14.4% [at 11.5 µM],–
Cc1cccc(CCn2c(=O)c3ccccc3n(Cc3cccc(F)c3)c2=O)c1,inactive: 8.72%,–
COc1ccc(OC)c(C2CC(=O)c3c([nH]c(C(=O)OCC4CCCCC4)c3C)C2)c1 (stereo unspecified),inactive: -25.1%,–
CC(=O)c1cccc(NC(=O)CCS(=O)(=O)c2cc(Br)cc3c2N(C(=O)C2CC2)CC3)c1,inactive: -6.72%,–
CCCC(=O)N1CC(=O)Nc2ccc(Cl)cc2C1c1ccc(F)cc1 (stereo unspecified),inactive: -19.7%,–
Cc1csc2nc(COC(=O)COc3ccccc3F)cc(=O)n12,inactive: -22.5%,–
CCS(=O)(=O)c1ncc(N(Cc2ccco2)Cc2sccc2C)c(C(=O)Nc2cc(C)ccc2C)n1,inactive: -28.3%,–
Cn1c(C(=O)NCc2ccc(F)cc2)cc2c(=O)n(C)c3ccccc3c21,inactive: 1.36%,–
CCCn1c(=O)c2sccc2n2c(CCCC(=O)N3CCN(c4ccccc4)CC3)nnc12,inactive: -7.38%,–
COc1ccc(CCNC(=O)Cn2nnc(-c3ccc(C(F)(F)F)cc3)n2)cc1OC,inactive: -18.1%,–
COCCn1c(SCC(=O)Nc2ccc(F)c(Cl)c2)nc2c(oc3ccccc32)c1=O,inactive: 3.79%,–
Cc1ccccc1NS(=O)(=O)c1ccc2[nH]cc(C(=O)N3CCCC3)c(=O)c2c1,inactive: -3.41%,–

SMILES,"activity change, negative = inhibition",Potency
Cc1nc2ccn(Cc3cccnc3)c(=O)c2cc1C(=O)Nc1ccc(OC(F)(F)F)cc1,inactive: -18.9%,–
C[C@@H](N)C1CCC(C(=O)Nc2ccncc2)CC1 (stereo partly specified),inactive: -9.89%,–
Cc1sc2ncn(CC(=O)Nc3cccc(C(F)(F)F)c3)c(=O)c2c1S(=O)(=O)N1CCC(C)CC1,inactive: -17.4%,–
CCOC(=O)C1=C(CN2CCN(c3ccccc3)CC2)NC(=O)NC1c1ccc(C)cc1 (stereo unspecified),inactive: -30%,–
O=C(Nc1ccccc1C(=O)OCc1cc(=O)n2nc(C3CC3)sc2n1)c1cccc(Cl)c1,inactive: -7.35%,–
Cc1ccc(Cl)cc1NC(=O)Cn1c(=O)c(CNc2ccccc2)cc2cc3c(cc21)OCCO3,inactive: -15.7%,–
COc1ccc(C(=O)Nc2cc(C(F)(F)F)ccc2N2CCN(c3ccccc3)CC2)cc1OC,inactive: -0.871%,–
COc1ccc(-c2c(C)nn3c4c(cnc23)C(=O)CC(c2ccc(C)cc2)C4)cc1 (stereo unspecified),inactive: -11.5%,–
CCC(=O)Nc1nnc(S(=O)(=O)N(C)Cc2ccccc2)s1,inactive: 1.17%,–
COc1cccc(NC(=O)Cn2c(=O)n(-c3ccc(CC(=O)NCC4CCCO4)cc3)c(=O)c3ccccc32)c1 (stereo unspecified),inactive: 0.987%,–
CCOc1ccccc1NC(=O)c1cccc2c1C(=O)N(C1CCCCC1)C2,inactive: -2.22%,–
Cc1cc(C)cc(NC(=O)NCCn2nnc3cc(S(=O)(=O)N(C)C)ccc32)c1,inactive: -22.2%,–
CCOc1ccc(C(=O)OCc2cc(=O)n3nc(C4CCCCC4)sc3n2)cc1,inactive: -24.5%,–
Cc1ccc(C)c(NC(=O)CSc2cn(CC(=O)N3CCCC3)c3ccccc23)c1,inactive: -20.7%,–
CCCN1C(=O)C(NC(=O)c2ccccc2OC)(C(F)(F)F)C(C(=O)OC)=C1C (stereo unspecified),inactive: -14.8%,–
CCOc1ccc(NC(=O)Cc2csc(COc3cccc(C)c3)n2)cc1,inactive: -5.94%,–
CCOc1ccccc1C1C(C(=O)Nc2ccccc2OC)=C(C)Nc2nc3ccccc3n21 (stereo unspecified),inactive: -2.27%,–
CCc1nnc2c3ccccc3nc(N3CCN(c4ccc(C)cc4C)CC3)n12,inactive: -20.6%,–
CCOc1ccc(NC(=O)Cn2c(C)ccc(C#N)c2=O)cc1,inactive: -7.49%,–
Cc1cc(C)c(NC(=O)CN(CC(=O)O)CC(=O)O)c(C)c1Br,inactive: 0.848%,–
COc1ccccc1CNC(=O)c1ccc(C)c(-n2cnc3cccnc32)c1,inactive: -25.5%,–
COc1ccc(-c2nn(C)c3sc(C(=O)N4CCN(c5cccc(C)c5C)CC4)cc23)cc1OC,inactive: -4.43%,–
Cc1cc(Br)ccc1NC(=O)c1cc2c(s1)-c1ccccc1SC2,inactive: -22.3%,–
O=C(CCCn1c(=O)c2cccn2c2cccnc21)NCCc1ccc(Cl)cc1,inactive: -5.58%,–
